Hit rate of the full screen: of about 310,000 compounds, about 14,000 (4.5%) showed an effect of 50% or more. The effect is printed as a negative number. The list shows a part of the results.
These compounds were tested against human ether-à-go-go-related gene (hERG) potassium channel (human, UniProt Q12809) (assay: primary screen, population patch clamp on CHO cells stably expressing hERG).
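Note: peak tail current of the secondary pulse compared with the same well before compound.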

human ether-à-go-go-related gene (hERG) potassium channel, sequence (Q12809 whole entry, looked up): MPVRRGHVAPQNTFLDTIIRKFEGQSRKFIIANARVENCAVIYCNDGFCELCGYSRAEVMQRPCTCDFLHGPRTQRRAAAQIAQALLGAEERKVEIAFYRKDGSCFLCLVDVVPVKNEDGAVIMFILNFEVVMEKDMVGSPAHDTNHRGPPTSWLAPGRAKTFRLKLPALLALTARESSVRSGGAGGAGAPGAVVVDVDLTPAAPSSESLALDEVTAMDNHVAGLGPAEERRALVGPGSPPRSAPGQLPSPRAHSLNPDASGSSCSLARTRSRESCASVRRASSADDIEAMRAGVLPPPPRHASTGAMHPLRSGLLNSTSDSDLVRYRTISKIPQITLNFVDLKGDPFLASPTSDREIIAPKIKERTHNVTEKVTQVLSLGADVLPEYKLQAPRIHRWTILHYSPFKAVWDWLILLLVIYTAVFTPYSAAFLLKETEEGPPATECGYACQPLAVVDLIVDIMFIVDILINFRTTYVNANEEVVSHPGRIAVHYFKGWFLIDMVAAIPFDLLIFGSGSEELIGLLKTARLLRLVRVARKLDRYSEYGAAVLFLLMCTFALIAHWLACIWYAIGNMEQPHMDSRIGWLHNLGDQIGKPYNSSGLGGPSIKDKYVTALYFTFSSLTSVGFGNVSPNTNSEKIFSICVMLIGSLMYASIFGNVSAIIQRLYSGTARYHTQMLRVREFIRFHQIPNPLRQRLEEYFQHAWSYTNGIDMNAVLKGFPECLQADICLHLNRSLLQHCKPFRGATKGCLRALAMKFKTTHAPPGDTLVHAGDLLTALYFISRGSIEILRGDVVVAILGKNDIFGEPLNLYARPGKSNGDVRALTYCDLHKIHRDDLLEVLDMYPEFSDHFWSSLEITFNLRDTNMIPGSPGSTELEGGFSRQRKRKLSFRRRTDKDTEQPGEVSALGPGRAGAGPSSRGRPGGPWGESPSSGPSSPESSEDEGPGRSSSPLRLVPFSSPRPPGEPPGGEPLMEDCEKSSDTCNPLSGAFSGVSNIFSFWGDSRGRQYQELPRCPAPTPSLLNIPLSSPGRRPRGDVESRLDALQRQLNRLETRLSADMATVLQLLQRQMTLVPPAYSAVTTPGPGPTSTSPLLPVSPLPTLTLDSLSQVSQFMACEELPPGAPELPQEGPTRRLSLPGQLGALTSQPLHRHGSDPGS

SMILES | hERG current change (%, negative = inhibition) at 10uM
CCN(CC)S(=O)(=O)c1ccc2c(c1)nc(SCC(=O)NCC1CCCO1)n2CC (stereo not drawn) | 3.12%
CCN1CCC(NC(=O)Nc2ccc(F)cc2F)CC1 | 10.7%
O=C(O)c1ccc2ccccc2c1O.OCc1cc(C(O)CNCCCCCCOCCCCc2ccccc2)ccc1O (stereo not drawn) | -45.5%
CCOc1ccc(-n2cc(C(=O)NCc3ccco3)c3cc(OC)c(OC)cc3c2=O)cc1 | 5.46%
Cc1nn(Cc2ccccc2)c(C)c1/C=N/NC(=O)CNc1cccc(C(F)(F)F)c1 | -13.7%
COc1ccccc1C(=O)NCC(=O)N1CCN(S(=O)(=O)c2ccccc2C(F)(F)F)CC1 | -6.95%
COC(=O)Nc1ccccc1C(=O)N1CCC(O)(c2ccc(Cl)cc2)CC1 | -14.4%
O=C(c1ccc(S(=O)(=O)N2CCCCCC2)cc1)N(c1ccccn1)C1CCCCC1 | -25.9%
CCOC(=O)C1SC2(C(F)(F)C(F)F)CC1(O)c1c(c(OC)c3occc3c1OC)O2 (stereo not drawn) | -3.47%
CN(Cc1c(F)cccc1Cl)C(=O)CNC(=O)c1ccc2c(c1)OCO2 | -0.499%
Cc1cccc(C(=O)NNC(=O)c2csc(N3CCOCC3)n2)c1C | -9.89%
N#Cc1c(-c2ccccc2Cl)cc(-c2ccccc2)[nH]c1=S | -1.23%
COc1cc(/C=N/NC(=O)COc2ccc(C)cc2)ccc1OC(=O)c1cccs1 | 20.7%
COc1ccc(-n2nc(C(=O)NCC(=O)Nc3cccc(Cl)c3)c3ccccc3c2=O)cc1 | 15.2%
CC(Oc1ccccc1Cl)C(=O)N1CCCN(C)CC1 (stereo not drawn) | 18.2%
CC(Oc1ccccc1)C(=O)N=C1SC2CS(=O)(=O)CC2N1c1cccc(F)c1 (stereo not drawn) | -4.53%
COc1ccc(/C=C2\Sc3ccc(C(=O)N4CCN(Cc5ccccc5)CC4)cc3N(C)C2=O)cc1OC | 3.28%
O=C(O)CSc1nnc(C2COc3ccccc3O2)n1-c1ccccc1 (stereo not drawn) | 22%
CC(C)[C@H]1C(=O)O[C@@H]2CCN3CC=C(COC(=O)[C@](C)(O)[C@]1(C)O)[C@H]23 | 4.72%
CN1/C(=C\C=Nc2ccccc2)C(C)(C)c2ccccc21 | -72.1%
N=c1c2c(ncn1Cc1ccco1)Oc1cc(O)ccc1C2c1ccccc1 (stereo not drawn) | -74.1%
Cc1cccc(NC(=O)CSc2nc(C3CC3)nc3ccccc23)c1 | -4.59%
Cc1cc2oc(=O)cc(Cn3ccnc3)c2cc1O | 16.9%
COCCNC(=O)/C(C#N)=C/C=C/c1ccccc1 | 21.1%
Cc1oc(-c2ccc(Cl)cc2)nc1CS(=O)CC(=O)NCc1ccc2c(c1)OCO2 (stereo not drawn) | -4.47%
Cc1ccc(C2=NN=C(NC(=O)CSc3nc(C)cc(C)n3)SC2)cc1 | 7.22%
CC(=O)/C(=N\Nc1ccc(Cl)cc1)Sc1nnc(-c2ccccc2)n1-c1ccccc1 | 1.56%

SMILES | hERG current change (%, negative = inhibition) at 10uM
CN(C)C(=O)Nc1ccc(F)cc1F | 1.6%
CN(c1ccc(C(=O)Nc2ccccc2C(=O)N2CCOCC2)cc1)S(C)(=O)=O | 14.2%
O=C(OCc1ccc([N+](=O)[O-])cc1)c1cc(S(=O)(=O)N2CCCCC2)ccc1N1CCOCC1 | -75.9%
COc1cc(/C=N/N=C2/SCC(=O)N2c2ccc(O)cc2)ccc1O | 15.3%
O=C(NCc1cccs1)c1cccnc1C(=O)O | 0.777%
Cc1ccc(NS(=O)(=O)c2ccc(C3CCCCC3)cc2)cc1 | -10.3%
COc1ccc2c(-c3ccccc3)cc(SC(C)C(N)=O)nc2c1 (stereo not drawn) | 19.3%
CCC1(c2ccccc2)NC(=S)N(c2ccc(C)cc2)N1 (stereo not drawn) | 22%
O=C(Cn1ncc2c1-c1ccccc1OC2)Nc1nc2ccccc2s1 | -17.3%
O=C(NCCc1ccc(Cl)cc1)C1CCC(=O)N(C2CCCCCC2)C1 (stereo not drawn) | -16.5%
COc1ccc2c(C)nc(Nc3nc(C)c(C)c(=O)[nH]3)nc2c1 | 4.79%
Cc1nc2ccc(NC(=O)Cc3ccsc3)cc2s1 | 6.81%
Cc1cccc(C2c3[nH]c4ccccc4c3CCN2C(=O)c2cn(C)c3ccccc3c2=O)n1 (stereo not drawn) | -25.6%
CCOC(=O)CC1COCCN1Cc1cn[nH]c1-c1ccc2c(c1)OCO2 (stereo not drawn) | 21.1%
COc1ccc(CCNC(=O)c2coc3ccccc3c2=O)cc1 | 19.5%
CC1CC(C)CN(C(=O)c2ccc(C#N)cc2)C1 (stereo not drawn) | 12.2%
CCN(CC)CCn1c2c(c(SCC(=O)Nc3cc(C)cc(C)c3)nc1=O)CCC2 | -62.1%
Cn1c(SCc2ccccc2)nnc1-c1ccc(O)cc1 | 6%
Cc1noc(C)c1C(=O)NCCc1c(C)[nH]c2ccccc12 | 13.8%
CC(OC(=O)CN1C(=O)C2C3C=CC(C4CC34)C2C1=O)C(=O)c1ccccc1 (stereo not drawn) | -3.71%
CCN(CC)C(=O)c1nn(-c2ccccc2)c2c1C1CCC2(C)C1(C)C (stereo not drawn) | -17.3%
O=C(COc1ccccc1[N+](=O)[O-])Nc1ccc(NC(=O)c2cc3ccccc3o2)cc1 | 1.86%
COc1ccc2nc(C)cc(N/N=C/c3cccc(OC)c3O)c2c1 | -13%
Cc1csc(=O)n1CCC(=O)OCc1nnc(-c2ccc([N+](=O)[O-])cc2)o1 | -67.3%
CCOC(=O)N1CCN(CC(O)COC(CC)c2ccccc2)CC1.Cl (stereo not drawn) | -19.6%
COn1c(SCc2cccc(Cl)c2)nc2ccccc2c1=O | -3.21%
Cc1cc(O)c(-c2cc(O)c(C)cc2O)cc1O | -14%
